Experimental data published in the supplement of paper PMC11417369.
± gives the standard deviation of the averaged measurements. The list shows a part of the results.

tested on: PfAP2-EXP AP2 domain (GST-tagged); test: gcPBM binding intensity (ln(normalized median fluorescence intensity)); higher = stronger DNA binding
Outline: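 An Agilent 4 × 180k array carrying primer-extended double-stranded 36-bp intergenic genomic probes and negative controls received GST-tagged P. falciparum DNA-binding domains expressed in E. coli, about 25 μg on average, for 1 h. The binding buffer contained 1× PBS, 1% milk, 0.2 mg/ml BSA, 0.5% salmon testes DNA and 0.03% Triton X-100. Binding intensity is the top Masliner-normalised natural-log median intensity across replicate spots of either probe orientation, read after Alexa488 anti-GST antibody staining and a 488 nm scan.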

Sequence	gcPBM binding intensity (ln)
TAATATTTCGCACTGTGTACTGAAATATTTATATCG [XGTACX_site516]	9.04 ± 0.2
ATAATAAGACGATAAGGTACACAAAATGTTAATATA [XGTACX_site6984]	8.78 ± 0.47
AAAGAAAGAAAGAAAAGTACTTAAACTTTTAAAAAT [XGTACX_site8531]	8.5 ± 0.58
ATTTCTTTTGTTATAGTGCATAATATTTATGTACGT	8.95 ± 0.24
AATAATAATAAAAATAAACACACATATATATGTATA [CACACA_site8928]	8.44 ± 0.43
TAACTATCATGTATTACACACAATATTTATTATATA [CACACA_site2701]	8.56 ± 0.43
TTAAATAAATAAATAACACACATATAAAAATAACGC [CACACA_site3266]	8.78 ± 0.45
ATATTAATATATAGAAGTACTCACATGTTAATATAA [XGTACX_site7323]	8.68 ± 0.35
AAGAAAAAAAGCAACACACGTACCAACACAATTATG [CACACA_site3133]	9.05 ± 0.4
AAGACAAATTTTACATGTACAAATATATTACATATA [XGTACX_site7060]	8.73 ± 0.46
TATTCAAATTTCCACATACACACCTTGTAGATATAT [CACACA_site281]	8.55 ± 0.38
TATTTGTGGATTTTTACACACATTAATATATATATA [CACACA_site3375]	9.39 ± 0.2
AGGAAAATTATGAATGGTACAGAATATATTAGGAGA [XGTACX_site6282]	9.02 ± 0.49
AAACAAAATAAATATGAACACACACCGTTATGCCTT [CACACA_site8347]	8.63 ± 0.42
GCACTAAAAAAATAAACACACAGATTTATATAATAT [CACACA_site1381]	8.32 ± 0.45
AATAAGTTATTATTTTGTACACATAAATAATACGTT [XGTACX_site814]	8.32 ± 0.3
AAAAAAACGTAAAAATGTACTTTTTGTATATAACCT [XGTACX_site7950]	8.62 ± 0.47
ATATATGCATATATTTGTACACATTTTTTTACATAA [XGTACX_site4624]	9.03 ± 0.49
AAGGAACTATAATATACACACATAAGTGTACTTATA [CACACA_site7816]	8.405 ± 0.078
TAAAGCGACATTTGGAAAATATATATCCTAGCATTT [CACACA_negctrl_site327]	8.41 ± 0.53
ATTCGTTATAAAATATGTACATAAATATATATATAT [XGTACX_site2819]	9.82 ± 0.23
AAAATACACAGACACACACACATATAAATAAATATT [CACACA_site7871]	8.59 ± 0.54

Sequence	gcPBM binding intensity (ln)
TATTCGTGCAATAGTAGTACACTTAAAAATTATTCA [XGTACX_site269]	8.9 ± 0.21
ACATAGATGCATATCACACATAATAATATTGTCGTA [CACACA_site4819]	8.53 ± 0.4
TTATAAAATAAACTTACACACATGAAATATTATATT [CACACA_site1945]	8.1 ± 0.34
ATAAACTGAGTGGTTACACACAAAACCAATAATTTT [CACACA_site3478]	8.42 ± 0.44
AGTTTCTATTTAGTGTGTACTTAAGAAAAATATCTC [XGTACX_site82]	8.56 ± 0.32
AAATGTATATATGTATGTACATATATATATATATAT [XGTACX_site5778]	10 ± 0.35
ATATATATATATATATGTACTCATATTTTATTATTT [XGTACX_site898]	10.1 ± 0.3
TCGCAAATAAATTAATGTACACATATATATATATAT [XGTACX_site5145]	10.1 ± 0.28
TTTTCAATTTTTTATGAACACACAAAAAAAAAAAAA [CACACA_site8808]	8.29 ± 0.33
TATTGATAATTTTATATATACATACATAAATAAATA [CACACA_negctrl_site1687]	8 ± 0.42
ACTAATGTAAAAGTTTGTACATATATTGAGAATTAT [XGTACX_site7439]	8.47 ± 0.33
ATTTTTTTCCACTAGTGTACAAATTTTACATTGTGT [XGTACX_site5023]	9.12 ± 0.32
AAGAAAAAAACAAAAAAAAAAAAAAAAATTCTTATT [TGCATGCA_negctrl_site504]	7.91 ± 0.49
CTATAATATTAGTGCACACACAAAAATGTACTAAAC [CACACA_site6442]	9.31 ± 0.71
TAAAAAAAAACAGAAACACACATTATTCATATAGAT [CACACA_site7052]	8.51 ± 0.47
AAAAGCACCGTTCGTTGTACACTGAAACACTTTTGT [XGTACX_site199]	8.78 ± 0.26
GTTATAAATTTTTTTTTTTTTTTTTTTTTTTTTTTT [CACACA_negctrl_site848]	9.11 ± 0.042
AACAAATACGGACACACACACACACTAGAAAAAAAA [CACACA_site4442]	8.69 ± 0.58
AACAAATTGAAACAATAATTGGAAAAAAAAAAAAAA [CACACA_negctrl_site1145]	8.21 ± 0.64
ATAAAATAAAAGGAATGTACTTTTTTTATTGTAATT [XGTACX_site4372]	8.25 ± 0.24
TTTTTTTAAATATATAAGATAAATTTATAAATAAAT [XGTACX_negctrl_site282]	7.85 ± 0.45
AAAAAAAATTTCTCAAGTACACAATTTTTTTTTGTT [XGTACX_site5874]	8.57 ± 0.27

Sequence	gcPBM binding intensity (ln)
TTTTATCATCACATTTGTCAAAAAAAAAAAAAAAAA [CACACA_negctrl_site1296]	8.04 ± 0.38
TTTTATTTTTATAACAGTACATAAGTAATTGTTCAA [XGTACX_site7574]	8.27 ± 0.3
TTATAATAAAAAAATTCCTAAGTCCGTATATATTAT [CACACA_negctrl_site1698]	8.11 ± 0.32
TTATGTTCATTATATGCACACATATATATAAATGTA [CACACA_site8947]	8.41 ± 0.24
GATTTTATAATTTCTACACACATATAAGAATATTCA [CACACA_site2802]	8.55 ± 0.33
ATATCAAACTAGAATGTGCGCATGCATTCAAGTTTT	8.685 ± 0.035
AAATTTGGATGACTCAATAAATTATAATATATATAT [CACACA_negctrl_site298]	9.28 ± 0.13
ATATTCTTTATATGCATACACACCTAATATAGGGAC [CACACA_site1533]	8.84 ± 0.28
AATCATTTGTTATAAGTCTAAAATTATTAGAATATT [XGTACX_negctrl_site151]	8.15 ± 0.6
TTCAATTTTTTAAAGCGTACATATAAAAGTTATATG [XGTACX_site731]	8.45 ± 0.34
ATTATTACATATAATGCATGTGCATATATTTTTATA [TGCATGCA_site701]	8.74 ± 0.14
TATATTTTATATTAGTGTACAAATTTCATTTTTCAT [XGTACX_site2204]	8.4 ± 0.33
AATATATATAAAAAAGTGCATTAGGATAACCATATA [GTGCAC_site9590]	8.83 ± 0.24
TATATATATATATTCACACATATAGTATTGTATTTA [CACACA_site5147]	10 ± 0.45
ATTTGTGACCACACAAATAAATAAATAAAAAAAAAA [TGCATGCA_negctrl_site328]	8.36 ± 0.41
AATATGAATATCTATACACACACATATATATACACA [CACACA_site8459]	8.47 ± 0.41
ATATATTTATATTTGTGTACATATTTATTATATTTA [XGTACX_site404]	8.46 ± 0.28
TAATAATAGAAACACACACACATTTTTAATAATACA [CACACA_site1216]	8.6 ± 0.44
AAGAAGAAAAACCATTGTACGAACTAACATATATAA [XGTACX_site3226]	8.66 ± 0.35
GGTATACATAATACTTGTACTAGGCAACAATAAGAT [XGTACX_site1437]	8.87 ± 0.5
TGTTAAAAGAAAAAAAGTACAAAAAATTATACATTT [XGTACX_site467]	8.15 ± 0.32
ATTATAAACCATAATTAACACACAAAATAAGTTACA [CACACA_site9057]	8.61 ± 0.37

Sequence	gcPBM binding intensity (ln)
AAAAAAAAAGAAAAATGTACATACATAAATATATAT [XGTACX_site5664]	8.57 ± 0.45
ATTCTATTTTTTATAAAACCATGTCATCAACATAGG [CACACA_negctrl_site237]	8.48 ± 0.43
AAAAAAAAAAAAAAAAGTACACAAATAGATTTATAT [XGTACX_site3727]	8.52 ± 0.18
CATCCATATAAAATATGTACATATATATATATATAT [XGTACX_site5859]	9.89 ± 0.44
TCCTTTCAACCATATATAATGACATGTACTCAAAAA [GTGCAC_negctrl_site417]	8.74 ± 0.35
TATTTTAGTAAAGGTGGTACTTTTAAGTTCATGTAT [XGTACX_site1854]	8.31 ± 0.44
GATAATTTATTTTTTCGTACACAAAATATAATATAT [XGTACX_site1470]	8.57 ± 0.24
TATATATCAAGACACACACACATATATTTATTTATA [CACACA_site7733]	8.81 ± 0.45
TTTTTTAAAGATTACTCAAAAAAATAAAAAAATAAA [GTGCAC_negctrl_site222]	8.26 ± 0.47
TCGTGAGAAAATATTACACACATTTACTATAGTATC [CACACA_site3444]	8.45 ± 0.39
TTTTTTTTTTTTTTTTGATACATTAACCTACAATGG [GTGCAC_negctrl_site625]	8.11 ± 0.45
TGAGTTCAACAAAGACGTACAAAACCAAAAATATAA [XGTACX_site8931]	8.88 ± 0.39
TAATTTTTCTTTTATTAACACACATATAAATAAATA [CACACA_site8935]	8.28 ± 0.43
AAAAATAAAAAAAGCACACACATATAAATAAATATA [CACACA_site6968]	8.69 ± 0.6
ATATATTTATATATTACACACAATATTGTAGACATA [CACACA_site4669]	8.63 ± 0.48
TATATGACAAGATAAAGTACAAATTTGTATATATAT [XGTACX_site3027]	8.97 ± 0.25
CCCAATAATTAAACAACACACATATTTATAGGTAAT [CACACA_site7445]	8.98 ± 0.83
ATATATATACTGTGTACACAAATATATATTATATAT [CACACA_site6104]	8.66 ± 0.057
TAAAATAAAAAGTTTACACACATATATAATTTTAAT [CACACA_site662]	8.3 ± 0.4
GAATTATATAATTAAAGTACATTGTTTATATAATCA [XGTACX_site7246]	8.31 ± 0.31
AACCATTTTAAATATGCACACAGATGCACTAACACA [CACACA_site8565]	9.05 ± 0.3
ATTTATATGGTTTGCACACATAACAACTATGGTTAT [CACACA_site3632]	8.9 ± 0.36
